In the supplement of paper PMC6089552:
“And” between values parts separate entries of the source, which are not always exact repeats. Identical values can stand only once. Hit rate of the full screen: of about 3,200 compounds, about 300 (9.4%) showed activity. The entries are a selection whose mix differs from that of the whole data set.

Tested on: A673/TR/shEF
Test: cell viability (LOESS-normalised, relative to median of negative controls) (log2 ratio); higher = more viable cells (less compound effect), active = hit call of the paper (over 3 MAD below the median)
Conditions: treatment time: 72 h
Summary of the method: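 Doxycycline, present or absent from 24 h before compounds, was used to induce EWS-FLI1 shRNA knockdown in A673/TR/shEF Ewing sarcoma cells at 1,500 per well in 384-well plates. Cells then received library compounds at two or more concentrations, or DMSO controls, for three days. Viability was measured by CellTiter-Glo luminescence on an Envision reader, and per-plate LOESS correction, division by the negative-control median and log2 transformation followed.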

[1] = 0.25 µM, library screen: screen1, EWS-FLI1 expression: high (no doxycycline)
[2] = 0.25 µM, library screen: screen1, EWS-FLI1 expression: low (doxycycline-induced shRNA knockdown)
[3] = 2.5 µM, library screen: screen1, EWS-FLI1 expression: high (no doxycycline)
[4] = 2.5 µM, library screen: screen1, EWS-FLI1 expression: low (doxycycline-induced shRNA knockdown)
[5] = 0.25 µM, library screen: screen2, EWS-FLI1 expression: high (no doxycycline)
[6] = 0.25 µM, library screen: screen2, EWS-FLI1 expression: low (doxycycline-induced shRNA knockdown)
[7] = 2.5 µM, library screen: screen2, EWS-FLI1 expression: high (no doxycycline)
[8] = 2.5 µM, library screen: screen2, EWS-FLI1 expression: low (doxycycline-induced shRNA knockdown)
[9] = 2.8 µM, library screen: screen3, EWS-FLI1 expression: high (no doxycycline)
[10] = 2.8 µM, library screen: screen3, EWS-FLI1 expression: low (doxycycline-induced shRNA knockdown)
[11] = 8.3 µM, library screen: screen3, EWS-FLI1 expression: high (no doxycycline)
[12] = 8.3 µM, library screen: screen3, EWS-FLI1 expression: low (doxycycline-induced shRNA knockdown)
[13] = 25 µM, library screen: screen3, EWS-FLI1 expression: high (no doxycycline)
[14] = 25 µM, library screen: screen3, EWS-FLI1 expression: low (doxycycline-induced shRNA knockdown)
[15] = 0.103 µM, library screen: screen3, EWS-FLI1 expression: high (no doxycycline)
[16] = 0.103 µM, library screen: screen3, EWS-FLI1 expression: low (doxycycline-induced shRNA knockdown)
[17] = 0.308 µM, library screen: screen3, EWS-FLI1 expression: high (no doxycycline)
[18] = 0.308 µM, library screen: screen3, EWS-FLI1 expression: low (doxycycline-induced shRNA knockdown)
[19] = 0.926 µM, library screen: screen3, EWS-FLI1 expression: high (no doxycycline)
[20] = 0.926 µM, library screen: screen3, EWS-FLI1 expression: low (doxycycline-induced shRNA knockdown)

Measured: cell viability (log2)

CC[C@H]1OC(=O)[C@H](C)[C@@H](O[C@H]2C[C@@](C)(OC)[C@@H](O)[C@H](C)O2)[C@H](C)[C@@H](O[C@@H]2O[C@H](C)C[C@H](N(C)C)[C@H]2O)[C@](C)(O)C[C@@H](C)CN(C)[C@H](C)[C@@H](O)[C@]1(C)O
inactive: [1] 0.0317 | [2] 0.0658 | [3] 0.122 | [4] 0.0894

CC1CCC2(CO)CCC3(C)C(=CCC4C5(C)CCC(O)C(C)(C)C5CCC43C)C2C1C (centres undefined)
inactive: [1] 0.00774 | [2] -0.0265 | [3] 0.0749 | [4] 0.092

CCOC(=O)C(Cc1ccc(O)cc1)NC(C)=O (centres undefined)
inactive: [1] 0.139 | [2] -0.0191 | [3] 0.0818 | [4] -0.000428

COc1ccc2c(c1)c(CC(=O)O)c(C)n2Cc1ccc(F)cc1
inactive: [5] 0.088 | [6] 0.0679 | [7] 0.0932 | [8] 0.0469

O=C(/C=C/c1cccc(S(=O)(=O)Nc2ccccc2)c1)NO
active: [9] -0.399 | [10] -0.113 | [11] -1.47 | [12] -0.52 | [13] -4.33 | [14] -2.11

NC[C@H]1O[C@H](O[C@H]2[C@H](O)[C@@H](O[C@H]3O[C@H](CO)[C@@H](O)[C@H](N)[C@H]3O)[C@H](N)C[C@@H]2N)[C@H](N)C[C@@H]1O
inactive: 0.025 µM, library screen: screen2, EWS-FLI1 expression: high (no doxycycline) -0.0103 | 0.025 µM, library screen: screen2, EWS-FLI1 expression: low (doxycycline-induced shRNA knockdown) 0.0337 | [1] 0.0322 | [2] 0.0135 | [5] 0.116 | [6] -0.00719 | [3] 0.0595 | [4] 0.0531 | [7] 0.136 | [8] 0.0663 | 25 µM, library screen: screen2, EWS-FLI1 expression: high (no doxycycline) 0.174 | 25 µM, library screen: screen2, EWS-FLI1 expression: low (doxycycline-induced shRNA knockdown) 0.0421

CNC(=O)c1c(F)cccc1Nc1nc(Nc2cc3c(cc2OC)CCN3C(=O)CN(C)C)nc2[nH]ccc12
inactive: [15] -0.00474 | [16] 0.0229 | [18] -0.0133 | [20] -0.047
active: [17] -0.215 | [19] -0.468 | [9] -0.729 | [10] -0.119 | [11] -0.785 | [12] -0.103 | [13] -1.04 | [14] -0.185

COc1ccc2c(c1)c(CC(=O)O)c(C)n2C(=O)c1ccccc1
inactive: [5] 0.183 | [6] 0.175 | [7] 0.131 | [8] 0.14

C[C@@H]1CCC2[C@@H](C)[C@@H](O)O[C@@H]3OC4(C)CC[C@@H]1[C@@]23OO4 (some centres undefined)
inactive: [1] 0.104 | [2] 0.00583 | [3] 0.029 | [4] -0.122

COCCOC(=O)C1=C(C)NC2=C(C(=O)CCC2)C1c1ccc(C)s1 (centres undefined)
inactive: [1] -0.0698 | [2] 0.0631 | [3] 0.0308 | [4] 0.207

COc1cc(OC)c2ccc(=O)oc2c1
inactive: [1] 0.111 | [2] 0.0194 | [3] 0.0761 | [4] -0.0247

CNC(=O)c1ccc(N2C(=S)N(c3ccc(C#N)c(C(F)(F)F)c3)C(=O)C2(C)C)cc1F
inactive: [15] -0.0464 | [16] 0.0923 | [17] 0.0275 | [18] 0.00942 | [19] 0.025 | [20] 0.045 | [9] 0.00719 | [10] 0.00621 | [11] -0.0193 | [12] 0.00651 | [13] 0.0274 | [14] -0.0592

O=C(CCBr)N1CCN(C(=O)CCBr)CC1
inactive: [1] 0.186 | [2] 0.0266 | [3] 0.134 | [4] 0.0433

CCCCC1C(=O)N(c2ccccc2)N(c2ccc(O)cc2)C1=O (centres undefined)
inactive: [1] 0.139 | [2] 0.0945 | [4] 0.2
active: [3] -0.129

COc1cc2nc(N3CCN(C(=O)C4COc5ccccc5O4)CC3)nc(N)c2cc1OC (centres undefined)
inactive: [15] 0.124 | [16] 0.115 | [5] 0.233 | [6] 0.0757 | [17] 0.0704 | [18] 0.0817 | [19] 0.118 | [20] 0.0497 | [7] 0.0767 | [8] 0.094 | [9] 0.0683 | [10] 0.00171 | [11] 0.111 | [12] 0.0618 | [13] 0.0496 | [14] 0.0586

CC(=O)Nc1ccc(OC(=O)c2ccccc2O)cc1
inactive: [1] 0.116 | [2] 0.0261 | [3] 0.151 | [4] 0.112

COC(=O)C[C@H]1C(C)(C)C(OC)=C2CC3=C4CC(=O)O[C@@H](c5ccoc5)[C@]4(C)CCC3[C@@]1(C)C2=O (some centres undefined)
inactive: [1] 0.0817 | [2] 0.1 | [3] 0.101 | [4] 0.109

COC(=O)C[C@H]1C2(C)CC34OC5(C)O[C@@]6([C@H](OC(C)=O)C(OC(C)=O)[C@]7(C)C(/C(=C(/O)C(C)C)C(=O)O[C@H]7c7ccoc7)[C@@]6(O5)[C@H](OC(C)=O)[C@@]3(O)C2OC(=O)C(C)C)[C@]14C (some centres undefined)
inactive: [1] -0.0155 | [2] 0.0666 | [3] 0.0766 | [4] 0.119

Cc1cc(C(C)(C)C)cc(C)c1CC1=NCCN1
inactive: [1] 0.13 | [2] 0.118 | [5] 0.239 | [6] 0.0958 | [3] 0.164 | [4] 0.17 | [7] 0.231 | [8] 0.0544

CCN(CCCCOC(=O)c1ccc(OC)c(OC)c1)C(C)Cc1ccc(OC)cc1 (centres undefined)
inactive: [1] 0.13 | [2] 0.128 | [3] 0.198 | [4] 0.205

O=c1[nH]ccc2c(O)cccc12
inactive: [5] 0.128 | [6] 0.0644 | [7] 0.117 | [8] 0.0876

O=P(O)(O)C(O)(Cn1ccnc1)P(=O)(O)O
inactive: [15] 0.0136 | [16] 0.138 | [17] 0.165 | [18] 0.116 | [19] 0.193 | [20] 0.0827 | [9] 0.164 | [10] 0.174 | [11] 0.23 | [12] 0.0896 | [13] 0.262 | [14] 0.113

O=C(c1cc(O)c(O)c([N+](=O)[O-])c1)c1ccccc1F
inactive: [5] 0.0844 | [6] 0.0601 | [7] 0.153 | [8] 0.129

CC(=O)O[C@@H]1CC(=O)[C@@]2(C)C(CC(=O)[C@]3(C)C2CC[C@@]2(C)[C@H](c4ccoc4)OC(=O)C4OC423)C1(C)C (some centres undefined)
inactive: [1] 0.122 | [2] 0.0336 | [3] 0.0891 | [4] 0.0361

CCN(CC)CCOCCOC(=O)C1(c2ccccc2)CCCC1
inactive: [1] 0.117 | [2] 0.021 | [5] 0.157 | [6] 0.127 | [3] 0.0781 | [4] 0.0809 | [7] 0.0944 | [8] 0.064

Nc1nc(=O)n([C@@H]2CS[C@H](CO)O2)cc1F
inactive: [15] 0.192 | [16] 0.0112 | [17] 0.127 | [18] 0.0608 | [19] 0.143 | [20] 0.0726 | [9] 0.139 | [10] 0.0596 | [11] 0.0605 | [12] 0.0396 | [13] 0.0881 | [14] 0.154

COc1ccc(Cl)cc1C(=O)NCCc1ccc(S(=O)(=O)NC(=O)NC2CCCCC2)cc1
inactive: [15] 0.115 | [16] 0.0621 | [1] 0.0607 | [2] 0.0399 | [5] 0.171 | [6] 0.0382 | [17] 0.175 | [18] 0.0954 | [19] 0.104 | [20] 0.103 | [3] 0.0749 | [4] 0.0806 | [7] 0.0699 | [8] 0.0189 | [9] 0.125 | [10] 0.0778 | [11] 0.113 | [12] 0.0685 | [13] 0.0907 | [14] 0.0579

CC#C[C@]1(O)CC[C@H]2[C@@H]3CCC4=CC(=O)CCC4=C3[C@@H](c3ccc(N(C)C)cc3)C[C@@]21C
inactive: [5] 0.155 | [6] 0.0864 | [7] 0.139 | [8] 0.0675

C=C(C)C1Cc2c(cc3oc(CO)cc(=O)c3c2O)O1 (centres undefined)
inactive: [1] 0.0482 | [2] -0.012 | [3] 0.067 | [4] 0.013

CCCCC(CC)CN=C(N)NC(N)=NCCCCCCN=C(N)NC(N)=NCC(CC)CCCC (centres undefined)
inactive: [1] 0.103 and 0.0973 | [2] 0.044 and 0.0691 | [3] 0.127 and 0.022 | [4] 0.0795 and 0.0454

Cn1cc(C(F)(F)F)nc1-c1ccc(OCC(O)CNCCOc2ccc(O)c(C(N)=O)c2)cc1 (centres undefined)
inactive: [5] 0.106 | [6] 0.126 | [7] 0.173 | [8] 0.0898

CN(C(=O)CN(CCO)CC(=O)N(C)C(C)(C)Cc1ccccc1)C(C)(C)Cc1ccccc1
inactive: [1] 0.105 | [2] 0.0799 | [3] 0.108 | [4] 0.0622

Cc1cc(C)nc(NS(=O)(=O)c2ccc(N)cc2)n1
inactive: [1] -0.0475 | [2] 0.107 | [3] 0.101 | [4] 0.0787

CC1(C)O[C@@H]2C[C@H]3[C@@H]4C[C@H](F)C5=CC(=O)C=C[C@]5(C)[C@@]4(F)[C@@H](O)C[C@]3(C)[C@]2(C(=O)CO)O1
inactive: [1] 0.151 | [2] -0.224 | [3] 0.219 | [4] -0.204
